In US6641809:

Molecular target: T1, B7 antigen (human, UniProt P33681 35-288)
T1 construct: whole, on cells; The same entry is used for B7 on transfected COS/CHO cells and for native B7 on B cell lines; the assay field says which; also called B7/BB-1 antigen; ligand for CD28
T1 sequence (looked up): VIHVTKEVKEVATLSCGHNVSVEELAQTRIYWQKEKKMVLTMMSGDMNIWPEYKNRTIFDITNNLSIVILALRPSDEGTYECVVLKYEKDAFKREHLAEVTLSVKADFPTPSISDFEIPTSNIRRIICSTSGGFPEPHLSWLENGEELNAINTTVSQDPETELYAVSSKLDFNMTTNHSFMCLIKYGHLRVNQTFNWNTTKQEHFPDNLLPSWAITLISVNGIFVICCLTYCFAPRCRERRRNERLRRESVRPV
Test: inhibition of adhesion of PM lymphoblastoid cells to CD28+ CHO monolayers

B1: CD28Ig fusion protein (Fc fusion)
chain: not shown
notes: Made in COS cells and purified on protein A; DNA deposited as ATCC 68628; also called immobilized CD28Ig
IC50: > 950 nM
